Values joined by “and” are separate entries in the source; they are usually repeats but may differ in a detail not shown here. Identical values can stand only once. Out of some 420,000 compounds screened, about 50,000 (12%) were called active. Inconclusive means that the source gave no clear call. Such entries were picked first, then a sample of the others. The call rests on the fitted dose curve; in most records, active means well fitted inhibition curve with a large enough effect; inconclusive means small, poorly fitted or top-dose-only effect; inactive means flat fitted curve, though single readings scatter. Potencies of inconclusive entries are left out as doubtful fits. More than one record can exist for a structure, and the calls need not agree.
Assay: qHTS for Inhibitors of human tyrosyl-DNA phosphodiesterase 1 (TDP1): qHTS in cells in presence of CPT; further: nearly all actives have a fitted effect of over 55% in size
Details: chicken DT40 Tdp1-/-;hTDP1 cells + 20 nM CPT, ATP luminescence, 48 h; activity change, negative = growth inhibition: at 46.2 µM (top of the series) unless noted
Method in brief: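 Cell growth measured by CellTiter-Glo luminescence after a minimum 48 h, 37 C compound exposure with 20 nM CPT in Tdp1-knockout DT40 cells stably expressing hTDP1, seeded 400/well; qHTS titration format.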
On the % scale 0 is the no-effect control and ±100 the full control effect; potency means the concentration at half of the fitted maximal effect; tags describe the fitted curve by direction and shape.

Q: Which Potency does the source give for `Cc1ccccc1OCC(=O)Nc1ccc(Cc2ccncc2)cc1` here?
A: inconclusive [inhibitor, partial curve]

Q: For `COc1cccc(-c2cc(C(=O)Nc3ccc(F)cc3)[nH]n2)c1`, which Potency is on record?
A: inconclusive [inhibitor, partial curve]

Q: For `C/C(CC(=O)Nc1ccc(N(C)C)cc1)=N\NC(=O)c1ccccc1F`, which Potency is on record?
A: inactive

Q: For `CCn1c(CNc2ccc(OC)cc2)nnc1SCC(=O)N1CCCc2ccccc21`, which Potency is on record?
A: inactive

Q: Which Potency does the source give for `N#Cc1c(NC(=O)CSc2ncc(-c3ccccc3)n2CC2CCCO2)sc2c1CCCC2` (configuration not stated) here?
A: inconclusive [inhibitor, single point]

Q: Which Potency does the source give for `O=C(NCc1ccc(OC(F)(F)F)cc1)C1CC2Cn3c(nc4ccccc43)C2N1c1ccccc1` (configuration not stated) here?
A: inconclusive [inhibitor, partial curve]

Q: For `CC1C(=O)N2CCCc3cc(S(=O)(=O)Nc4ccc(Br)cc4F)cc1c32` (configuration not stated), which Potency is on record?
A: inconclusive [inhibitor, partial curve]

Q: With `O=S1(=O)CCOC[C@H](CC2CCCCC2)N1Cc1cccc(Cl)c1` as the molecule, how does the Potency read?
A: active: 14.1 µM

Q: Which Potency does the source give for `CCN(CC)C(=O)C1=C(C)N(CCCOC)C(=O)C(CC(=O)NCCc2ccccn2)C1` (configuration not stated) here?
A: inactive

Q: Which Potency does the source give for `Cc1cc(C)n(CC(O)COc2ccc(C(C)C)c(C)c2)n1` (configuration not stated) here?
A: inconclusive [inhibitor, single point]

Q: For `C/C(=N\Nc1nc(-c2ccccc2)cs1)c1cccs1`, which Potency is on record?
A: inconclusive [inhibitor, single point]

Q: For `CCOc1cc(-c2nnc(SCC(=O)NCc3ccc(C)cc3)nc2-c2ccc(OC)c(OCC)c2)ccc1OC`, which Potency is on record?
A: inconclusive [inhibitor, single point]

Q: Which Potency does the source give for `CC(C)[C@@H]1NC(=O)N(c2ccc(Oc3ccccc3)cc2)C1=O` here?
A: inconclusive [inhibitor, single point]

Q: For `CN(CC(=O)Nc1ccc(N2CCOCC2)cc1)C(=O)CCCOc1ccc(Cl)cc1Cl`, which Potency is on record?
A: active: 9.2 µM

Q: Which Potency does the source give for `C=CCC1(CC=C)CCCN1C(=O)c1cc(COc2ccc(C)nc2)on1` here?
A: active: 2.59 µM

Q: With `COc1ccc(OC)c2sc(NC(=O)CCS(=O)(=O)c3ccccc3)nc12` as the molecule, how does the Potency read?
A: active: 5.17 µM

Q: With `C[N+]1(CC(=O)OC2CCCCCCCCCCC2)CCCC1` as the molecule, how does the Potency read?
A: active: 4.11 µM

Q: With `Cc1cc2c(=O)n(CC(=O)N3CCN(c4ccccc4)CC3)cnc2s1` as the molecule, how does the Potency read?
A: inactive

Q: For `COc1ccccc1C(=O)Nc1ccc2c(c1)nc1n2CCN(C2CCCCC2)C1`, which Potency is on record?
A: active: 14.6 µM

Q: For `CCC1CN(CCNC(=O)c2ccc(C#CC(C)(C)O)cc2)Cc2cc(OC)ccc2O1` (configuration not stated), which activity change, negative = growth inhibition is on record?
A: inactive: 4.13% [at 9.04 µM]

Q: Which Potency does the source give for `O=C(Cn1c(=O)oc2cc(S(=O)(=O)NCc3ccccc3)ccc21)N(CCO)Cc1ccccc1` here?
A: inconclusive [inhibitor, single point]

Q: For `O=C(Cc1ccc([N+](=O)[O-])cc1)Nc1cccc(C(=O)N2CCCC2)c1`, which Potency is on record?
A: inconclusive [inhibitor, partial curve]

Q: With `COCCNC(=S)N1CCN(c2nc(-c3cccc(OC)c3)cs2)CC1` as the molecule, how does the Potency read?
A: inconclusive [inhibitor, single point]

Q: For `Cn1c(SCC(=O)N2CCOCC2)nc2sc3c(c2c1=O)CCCC3`, which Potency is on record?
A: active: 9.2 µM

Q: With `CC1=C(C(=O)OCC2CCCO2)C(c2ccsc2)C2=C(CC(C)(C)CC2=O)N1` (configuration not stated) as the molecule, how does the Potency read?
A: inconclusive [inhibitor, single point]

Q: With `O=C(CNCc1ccc(F)cc1)Nc1cc(S(=O)(=O)N2CCOCC2)ccc1Cl` as the molecule, how does the Potency read?
A: inconclusive [inhibitor, single point]

Q: Which Potency does the source give for `COc1ccccc1Cc1c(C2CCCCC2)nc2c3ccccc3ccn12` here?
A: inconclusive [inhibitor, partial curve, poor fit]

Q: Which Potency does the source give for `CCOc1ncccc1C(=O)OCC(=O)NCc1ccccc1` here?
A: inactive

Q: With `Cc1ccc(N2C(=O)c3ccccc3C2Nc2ccc(S(=O)(=O)N3CCCCC3)cc2)nc1` (configuration not stated) as the molecule, how does the Potency read?
A: inconclusive [inhibitor, single point]

Q: For `COc1cccc(CNC(=O)CCC2CCCN(C(=O)c3cc4ccccc4o3)C2)c1` (configuration not stated), which Potency is on record?
A: inconclusive [inhibitor, single point]

Q: For `COc1ccc(OC)c(NC(=O)c2nc(SCc3ccccc3F)ncc2Cl)c1`, which Potency is on record?
A: inactive and active: 10 µM

Q: For `CN(C)S(=O)(=O)c1cccc(NC(=O)CCSc2ccc(Cl)cc2)c1`, which Potency is on record?
A: inconclusive [inhibitor, single point]

Q: Which Potency does the source give for `CC(C)C[C@H]1CN([C@@H](Cc2ccccc2)CN2CCC[C@@H]2CN2C(=O)C(=O)NC[C@@H]2Cc2ccccc2)C(=O)C(=O)N1CC1CCCCC1` here?
A: active: 20.6 µM

Q: Which Potency does the source give for `CC1CCCN(C(=O)C2CCN(CCCc3ccccc3)CC2)C1` (configuration not stated) here?
A: inconclusive [inhibitor, partial curve]

Q: For `COc1ccc2c(=O)cc(-c3ccccc3F)oc2c1`, which Potency is on record?
A: inconclusive [inhibitor, single point]

Q: With `COc1ncc2nc(C)c(=O)n(CCc3ccccc3)c2n1` as the molecule, how does the Potency read?
A: inconclusive [inhibitor, single point]

Q: Which Potency does the source give for `CN(C(=O)COC(=O)CNC(=O)CNC(=O)c1ccc(Cl)cc1Cl)c1ccccc1` here?
A: inactive

Q: With `O[C@@H]1CN(Cc2cccs2)[C@@H](c2ccc(Cl)cc2)C[C@H]1n1cc(-c2ccc(F)cc2)nn1` as the molecule, how does the Potency read?
A: inconclusive [inhibitor, single point]

Q: Which Potency does the source give for `O=C(O)CCCC(=O)N1CCN(c2nc(-c3ccccc3)c3ccccc3n2)CC1` here?
A: inactive

Q: For `Cc1cccc(Nc2nc(-c3ccccc3)cs2)n1`, which Potency is on record?
A: inconclusive [inhibitor, single point]

Q: With `COc1ccc(CN(C(=O)c2ccc(-c3ccccc3)[nH]2)C(C(=O)NCC2CCCO2)c2ccc(C)o2)cc1` (configuration not stated) as the molecule, how does the Potency read?
A: inconclusive [inhibitor, single point]

Q: With `Cc1ncc([N+](=O)[O-])n1CC(=O)Nc1ccccc1Cl` as the molecule, how does the Potency read?
A: inactive

Q: With `O=C(NC1CCN(C(=O)Nc2ccc(F)cc2)CC1)c1cccc(F)c1` as the molecule, how does the Potency read?
A: inactive

Q: Which activity change, negative = growth inhibition does the source give for `COc1cccc2c1C(=O)CC(c1ccccc1)O2` (configuration not stated) here?
A: inconclusive: -31.1% [inhibitor]

Q: For `COc1cccc(C(=O)NCC(C)(C)SCc2ccc(F)cc2)c1`, which Potency is on record?
A: inconclusive [inhibitor, single point]

Q: With `Cc1ccc(CNC(=O)Cn2c([N+](=O)[O-])cnc2C)cc1` as the molecule, how does the Potency read?
A: inconclusive [inhibitor, single point]

Q: With `CN(C)C(CNc1ncnc2ccccc12)c1c(F)cccc1Cl` (configuration not stated) as the molecule, how does the Potency read?
A: inactive

Q: For `Cc1ncsc1CCSc1n[nH]c(=O)n1-c1ccccc1`, which Potency is on record?
A: inconclusive [inhibitor, single point]

Q: For `CCN1CCN(c2ncnc3c2sc(=S)n3-c2ccccc2)CC1`, which Potency is on record?
A: inconclusive [inhibitor, single point]

Q: With `O=C(CN1C(=O)NC2(CCCC2)C1=O)NCCc1ccccc1` as the molecule, how does the Potency read?
A: inactive

Q: Which Potency does the source give for `CCC1CN(C(=O)Nc2cc(OC)cc(OC)c2)c2ccccc2S1` (configuration not stated) here?
A: inconclusive [inhibitor, single point]

Q: For `CCCCC1OC23CCCCC2C(C#N)(C(=N)O3)C1(C#N)C#N` (configuration not stated), which Potency is on record?
A: active: 7.31 µM

Q: Which Potency does the source give for `CC(=O)N1CCCc2cc(S(=O)(=O)N(CC(C)C)CC(C)C)ccc21` here?
A: active: 25.9 µM

Q: For `O=C(COc1ccccc1Cl)Nc1ccc(N2CCN(C(=O)c3ccccc3)CC2)cc1`, which Potency is on record?
A: active: 18.4 µM

Q: Which activity change, negative = growth inhibition does the source give for `COc1cc2cc(CCOC(=O)c3ccc(C#N)cc3)oc(=O)c2cc1OC` here?
A: inconclusive: -32.2% [inhibitor]

Q: Which Potency does the source give for `Cc1ccc2oc(C(=O)Nc3sc4c(c3C(=O)NCc3ccccc3)CCCC4)cc(=O)c2c1` here?
A: inconclusive [inhibitor, full curve]

Q: For `CCc1ccccc1NC(=O)C1=CN2CCS(=O)(=O)N=C2C=C1`, which Potency is on record?
A: inactive

Q: For `COc1ccc(/C=C/C(=O)OCC(=O)Nc2cccc(S(=O)(=O)NC3=NCCCCC3)c2)cc1`, which Potency is on record?
A: inactive

Q: With `O=C(c1ccc2c(=O)n(-c3ccccc3)c(=O)[nH]c2c1)N1CCN(c2ccc(F)cc2)CC1` as the molecule, how does the activity change, negative = growth inhibition read?
A: inconclusive: -30.7% [inhibitor]

Q: With `Cc1ccc(OCC(=O)NCCCNC(=O)c2ccc(C)nc2)cc1` as the molecule, how does the Potency read?
A: inactive

Q: Which Potency does the source give for `CCOC(=O)CN1C(=O)C(CC)Oc2ccccc21` (configuration not stated) here?
A: inactive

Q: For `CCCCN(C(=O)CC1CCCC1)c1c(N)n(Cc2ccccc2)c(=O)[nH]c1=O`, which Potency is on record?
A: inactive

Q: Which Potency does the source give for `CCCOc1ccc2c3c(c(=O)oc2c1)CCCC3` here?
A: inconclusive [inhibitor, single point]

Q: For `CCc1cc2cc(C)cc(C)c2nc1SCC(=O)NNC(=O)c1ccco1`, which Potency is on record?
A: inconclusive [inhibitor, single point]

Q: Which Potency does the source give for `FC(F)(F)COCC(F)(F)F` here?
A: inactive

Q: For `CCOC(=O)c1ccc(N2CCN(c3ccccc3F)CC2)c(NC(=O)Nc2ccccc2)c1`, which Potency is on record?
A: active: 16.4 µM

Q: With `Cc1sc2ncnc(NCC(O)c3ccccc3)c2c1C` (configuration not stated) as the molecule, how does the Potency read?
A: active: 7.31 µM

Q: With `COCc1cc(C)c2c(N)c(C#N)sc2n1` as the molecule, how does the Potency read?
A: inactive

Q: For `O=C(COC(=O)c1ccc(S(=O)(=O)N2CCCC2)cc1)NCc1cccs1`, which Potency is on record?
A: inactive

Q: For `C[C@H]1CN([C@@H](C)CO)S(=O)(=O)c2ccc(Br)cc2O[C@H]1CN(C)Cc1ccc(F)cc1`, which Potency is on record?
A: inconclusive [inhibitor, single point]

Q: With `CCN1C(=O)/C(=C2/C(=O)N3c4c(cc(OC(C)=O)cc42)C(C)=CC3(C)C)SC1=S` as the molecule, how does the Potency read?
A: inconclusive [inhibitor, single point]

Q: For `CCN1CCN(C(=S)c2ccc(OCC(=O)Nc3ccc(OC)cc3)cc2)CC1`, which Potency is on record?
A: inconclusive [inhibitor, single point]
